Test results published in the supplement of paper PMC10441789.
Some of the results follow. Antibody binding of pooled human sera (four to six donors per pool; dilution not stated) to peptides of the Trypanosoma cruzi antigen TSSA on microarrays. Quantile-normalised fluorescence in arbitrary units, mean of duplicate arrays; higher = more binding. No active / inactive call. The uninfected pools are read here as the healthy donors of the same country. The strongest signals lie near the top of the scale (about 60,000).

system: pooled sera of chronic Chagas disease patients, Argentina; test: antibody binding signal (normalised fluorescence) (arbitrary fluorescence units); higher = stronger serum antibody binding to peptide
Description: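 Microarray of 15-residue peptides over residues 30-55 of Trypanosoma cruzi TSSAII, each with 1 to 10 substitutions at naturally variable positions, probed with one serum pool per country.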

Sequence | antibody binding signal
GTDKKTAAGETPSQP | 260
EKKAAAGEAPSQPGA | 5670
DKKTATGGTPSPSGA | 579
TDKKPAAGGTPSQPG | 380
GKEKKTAAGETPSPS | 2570
GKENKPAAGGAPSPP | 1040
KPATGEAPSPSGASS | 47900
NKAATGEAPSPSGAS | 13200
SGTDKKTATGETPSQ | 582
GKDKKPAAGETPSPP | 592
SGTEKKAATGGAPSQ | 4190
KDNKTATGGAPSQPG | 491
KDNKTAAGETPSQSG | 847
STPPSGTENKTAAGE | 49100
PSGKENKTATGETPS | 4250
DKKAATGGTPSQSGA | 581
SGTDNKAAAGGAPSQ | 278
TDKKTATGETPSPPG | 266
GKEKKPAAGGAPSQS | 5710
SGTENKPATGETPSP | 39700

Sequence | antibody binding signal
PSGTDKKTATGETPS | 1330
GTEKKTATGETPSPP | 1340
PPSGKDNKPAAGGAP | 1040
TSSTPPSGKDKKPAA | 29300
TDKKAATGETPSPSG | 1290
SGTENKAAAGEAPSP | 40000
TISTPPSGTENKTAT | 48500
SGTEKKPAAGEAPSQ | 4510
TSSTPPSGTDNKAAT | 33100
SGKDKKPAAGGAPSP | 784
GTENKAAAGEAPSQS | 35700
PPSGTDNKPAAGEAP | 25800
PPSGKEKKTATGEAP | 11300
NKAATGGTPSQPGAS | 467
GKDNKPAAGGAPSQS | 444
PPSGTDKKTATGEAP | 13000
GKDNKTAAGGAPSQS | 311
DKKTAAGGAPSQPGA | 392
SGKDKKTAAGGTPSP | 804
KDNKAAAGEAPSQPG | 4800
